61 compounds from the supplement of paper PMC9446081 can be followed below.

The structures appear in SMILES notation. Among all 39,000 compounds or so, about 220 (0.56%) showed activity. Some of the results follow.
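Note: static incubation at 37 °C against the wild-type strain, values averaged over two biological replicates.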

The experiment concerns Escherichia coli K-12 BW25113. Briefly: relative growth (OD600 normalised to plate interquartile mean) (fraction); higher = less growth inhibition, active = 0.2 or less. The note with it: 50 µM; LB; incubation time: overnight (16-24 h).
In the case of `COc1ccc(NC(=O)N(C)C[C@H]2Oc3c(NC(=O)c4ccc(-c5nccs5)cc4)cccc3C(=O)N([C@@H](C)CO)C[C@H]2C)cc1`, the relative growth is inactive: 1.02.
To `NNC(=O)c1nnn(-c2nonc2N)c1CN1CCCCC1` belongs inactive: 1.09; to `C[C@H](CO)N1C[C@H](C)[C@@H](CN(C)S(=O)(=O)c2ccc(Cl)cc2)Oc2c(NC(=O)c3cnccn3)cccc2C1=O`, inactive: 1.01; to `Cc1noc(C)c1NC(=O)N(C)C[C@H]1Oc2c(NC(=O)NC(C)C)cccc2C(=O)N([C@H](C)CO)C[C@@H]1C`, inactive: 0.983.
Regarding `OC1CCOCC1`, the relative growth is inactive: 0.978.
To `COc1ccc(S(=O)(=O)N[C@@H]2CC[C@H](CC(=O)N3CCN(c4ccccc4)CC3)O[C@@H]2CO)cc1` belongs inactive: 1.03; to `COC(=O)[C@@H](Cc1ccccc1)N[C@H](/C=C/C1CC1)[C@@H](O)CCn1cc(-c2ccc(C(=O)NO)s2)nn1`, inactive: 0.993.
Consider `CCCNC(=O)c1cc2c(c(-c3cccc(-c4ccc(F)cc4)c3)n1)[C@H](CCO)N([S@@](=O)C(C)(C)C)C2`, for which the relative growth was inactive: 1.01.
For `CC(C)NC(=O)N(C)C[C@H]1Oc2c(NC(=O)NC3CCCCC3)cccc2C(=O)N([C@@H](C)CO)C[C@H]1C`, the relative growth was inactive: 0.994.
In the case of `C[C@@H]1CN([C@@H](C)CO)C(=O)c2cccc(NC(=O)Nc3ccccc3)c2O[C@@H]1CN(C)S(=O)(=O)c1cn(C)cn1`, the relative growth was inactive: 0.992.
As to `COc1ccc(CCNC(=O)[C@@]2(Sc3ccc(C)cc3)CC(=O)N(C3Cc4ccccc4C3)[C@@H]2c2ccc(CO)cc2I)cc1`, the relative growth was inactive: 1.01.
In the case of `Cc1noc(C)c1S(=O)(=O)N(C)C[C@H]1OCCCC[C@H](C)Oc2ccc(NC(=O)Nc3ccc(F)cc3)cc2C(=O)N([C@H](C)CO)C[C@@H]1C`, the relative growth was inactive: 0.96.
As for `COc1ccc(NC(=O)N(C)C[C@H]2Oc3ncc(C#CC(C)C)cc3C(=O)N([C@H](C)CO)C[C@@H]2C)cc1`, the relative growth was inactive: 0.985.
On to `C[C@H]1CN([C@@H](C)CO)C(=O)c2cc(NC(=O)Cc3cn(C)c4ccccc34)ccc2O[C@H]1CN(C)C(=O)Nc1ccc(C(F)(F)F)cc1`, for which the relative growth is inactive: 1.04.
Regarding `C[C@@H]1CN([C@H](C)CO)C(=O)c2cc(NC(=O)Cc3cn(C)c4ccccc34)ccc2O[C@H]1CN(C)Cc1ccc(-c2ccccc2)cc1`, the relative growth was inactive: 1.04.
Regarding `C[C@H](CO)N1C[C@H](C)[C@H](CN(C)S(=O)(=O)c2ccc(C#N)cc2)Oc2ncc(C#Cc3cccc(F)c3)cc2C1=O`, the relative growth is inactive: 0.993.
Regarding `Cc1ccc(S(=O)(=O)Nc2ccc3c(c2)C(=O)N([C@H](C)CO)C[C@@H](C)[C@@H](CN(C)S(=O)(=O)c2ccc(F)cc2)O3)cc1`, the relative growth is inactive: 1.01.
To `COc1ccc(NC(=O)N(C)C[C@H]2OCCCC[C@H](C)Oc3ccc(NC(=O)c4ccccc4)cc3C(=O)N([C@H](C)CO)C[C@H]2C)cc1` belongs inactive: 1.01; to `CCS(=O)(=O)Nc1ccc2c(c1)C(=O)N(C)[C@H]1CC[C@@H](CC(=O)NCCOC)O[C@H]1CO2`, inactive: 0.978; to `CN1CCN(C(=O)C[C@H]2C[C@H]3c4cc(NC(=O)c5ccc6c(c5)OCO6)ccc4O[C@H]3[C@H](CO)O2)CC1`, inactive: 0.976.
`CCOC(=O)CCCCCCCCCCCC[C@@H]1C=CCC1`: the relative growth is inactive: 1.04.
In the case of `C[C@@H]1CCCCO[C@H](CN(C)Cc2ccc(C(F)(F)F)cc2)[C@@H](C)CN([C@@H](C)CO)C(=O)c2cc(N(C)C)ccc2O1`, the relative growth was inactive: 1.
Consider `CCOc1ccc(-n2c([C@@H](C)N(Cc3cccnc3)C(=O)Cc3ccc(OC(F)(F)F)cc3)nc3ncccc3c2=O)cc1`, for which the relative growth is inactive: 0.814.
`Cc1ccc(S(=O)(=O)N(C)C[C@@H]2Oc3c(NC(=O)C4CCOCC4)cccc3C(=O)N([C@H](C)CO)C[C@@H]2C)cc1`: the relative growth is inactive: 1.02.
To `C[C@H](CO)N1C[C@H](C)[C@@H](CN(C)S(=O)(=O)c2cccs2)OCCCC[C@H](C)Oc2ccc(NS(=O)(=O)c3cn(C)cn3)cc2C1=O` belongs inactive: 1.01; to `CCCCCCCCCCC(C(=O)O)C1(C(=O)O)CCC(=O)O1` (stereo unspecified), inactive: 1.05.
To `COc1ccc(-c2cnc3c(c2)C(=O)N([C@@H](C)CO)C[C@@H](C)[C@H](CN(C)S(=O)(=O)c2ccc(OC)cc2)O3)cc1` belongs inactive: 1.03; to `C[C@H](CO)N1C[C@H](C)[C@@H](CN(C)S(=O)(=O)c2ccc(F)cc2)Oc2ccc(NS(=O)(=O)c3cccs3)cc2C1=O`, inactive: 1.02.
The figure for `C[C@H]1CN([C@@H](C)CO)C(=O)Cc2cc(NC(=O)CCN3CCOCC3)ccc2O[C@@H]1CN(C)C(=O)Nc1ccccc1` is inactive: 0.983; for `CC1=C(C(=O)OCCN(Cc2ccccc2)c2ccccc2)[C@H](c2cccc([N+](=O)[O-])c2)C(P2(=O)OCC(C)(C)CO2)=C(C)N1` it is inactive: 1.01; for `Cl.Clc1ccc2nsnc2c1NC1=NCCN1` it is inactive: 0.952.
In the case of `C[C@H]1CCCCO[C@@H](CN(C)Cc2ccc(C(=O)O)cc2)[C@@H](C)CN([C@@H](C)CO)C(=O)c2cc(NS(=O)(=O)c3ccc(F)cc3)ccc2O1`, the relative growth was inactive: 1.01.
For the compound `COc1ccc(CN(C)C[C@@H]2Oc3ccc(NC(=O)Nc4ccc(C(F)(F)F)cc4)cc3C(=O)N([C@@H](C)CO)C[C@H]2C)cc1`, the relative growth is inactive: 0.945.
As for `C[C@H](O)C#Cc1ccc2c(c1)O[C@@H](CN(C)C(=O)c1ccccc1)[C@@H](C)CN([C@H](C)CO)S2(=O)=O`, the relative growth was inactive: 0.956.
With `Cc1ccc(S(=O)(=O)N2C[C@@H](O)COC[C@H]3O[C@H](CC(=O)NCc4ccccc4Cl)CC[C@@H]32)cc1`, the relative growth was inactive: 0.999.
`CO[C@H]1CN(C)C(=O)c2ccc(NS(=O)(=O)CC(F)(F)F)cc2OC[C@@H](C)N(C(=O)NC(C)C)C[C@@H]1C`: the relative growth was inactive: 1.
`O=S(=O)(NCC[C@@H]1CC[C@H](NS(=O)(=O)c2ccccc2Cl)[C@H](CO)O1)c1ccc(F)cc1`: the relative growth is inactive: 1.05.
The figure for `NCC[C@@H]1CC[C@@H](NC(=O)C2CC2)[C@@H](CO)O1` is inactive: 1.03; for `C[C@@H]1CCCCO[C@H](CN(C)C(=O)CCC(F)(F)F)[C@@H](C)CN([C@@H](C)CO)C(=O)c2cc(NC(=O)Nc3ccccc3)ccc2O1` it is inactive: 0.988.
Regarding `C[C@H]1CN([C@@H](C)CO)C(=O)c2cccc(NC(=O)Nc3cccc4ccccc34)c2O[C@H]1CN(C)CC1CCCCC1`, the relative growth was inactive: 1.
In the case of `CCN(CC)S(=O)(=O)c1nnc[nH]1`, the relative growth is inactive: 1.
As for `CC(C)NC(=O)Nc1cccc2c1O[C@@H](CN(C)S(=O)(=O)c1ccc(Cl)cc1)[C@@H](C)CN([C@H](C)CO)C2=O`, the relative growth is inactive: 1.
Turning to `C[C@H]1CN([C@@H](C)CO)C(=O)CCCn2cc(nn2)CO[C@H]1CN(C)S(=O)(=O)c1ccc(-c2ccccc2)cc1`, the relative growth is inactive: 0.994.
Turning to `C[C@H](CO)N1C[C@H](C)[C@@H](CN(C)S(=O)(=O)c2ccccc2)Oc2ccc(NS(C)(=O)=O)cc2C1=O`, the relative growth is inactive: 0.994.
To `COc1ccc(NC(=O)N(C)C[C@@H]2OCCCC[C@@H](C)Oc3ccc(NC(=O)CCCCCC(=O)Nc4ccccc4N)cc3C(=O)N([C@H](C)CO)C[C@@H]2C)cc1` belongs inactive: 0.969; to `CCCC#Cc1ccc2c(c1)O[C@@H](CN(C)S(=O)(=O)c1cccc(F)c1)[C@H](C)CN([C@H](C)CO)S2(=O)=O`, inactive: 1.04; to `C[C@@H]1CN([C@@H](C)CO)C(=O)c2cc(NS(C)(=O)=O)ccc2O[C@@H](C)CCCCO[C@@H]1CN(C)Cc1ccncc1`, inactive: 1.02.
On to `COCCOC(=O)N1C(=O)[C@@]2(c3cc(C#Cc4ccc(OC)cc4)ccc31)[C@H](c1ccc(O)cc1)N1[C@H](c3ccccc3)[C@H](c3ccccc3)OC(=O)[C@H]1[C@@H]2C(=O)N1CCCCCCC1`, for which the relative growth is inactive: 0.955.
As to `C[C@H](O)C#Cc1ccc2c(c1)O[C@H](CN(C)C(=O)Cc1ccccn1)[C@H](C)CN([C@@H](C)CO)S2(=O)=O`, the relative growth is inactive: 1.01.
Take `NNC(=O)[C@H]1CCCNC1=O`: the relative growth is inactive: 1.02.
With `Cc1[nH]c(=O)[nH]c(=O)c1/C=C/C(=O)O`, the relative growth is inactive: 1.
For `COc1ccc(S(=O)(=O)N[C@@H]2CC[C@H](CCNC(=O)CN3CCOCC3)O[C@@H]2CO)cc1`, the relative growth is inactive: 0.971.
With `C[C@@H]1CN([C@@H](C)CO)C(=O)c2cc(NC(=O)Nc3ccc(F)cc3)ccc2O[C@@H](C)CCCCO[C@@H]1CN(C)Cc1ccc2c(c1)OCO2`, the relative growth was inactive: 1.02.
For the compound `C[C@H](CO)N1C[C@H](C)[C@@H](CN(C)S(=O)(=O)c2cn(C)cn2)Oc2ccc(NS(C)(=O)=O)cc2C1=O`, the relative growth is inactive: 0.983.
As for `C[C@@H]1CN([C@H](C)CO)S(=O)(=O)c2ccc(C#CC3(O)CCCC3)cc2O[C@H]1CN(C)C(=O)Nc1ccccc1`, the relative growth is inactive: 0.972.
To `Nc1ncnc2[nH]cnc12` belongs inactive: 1.04; to `C[C@@H]1CN([C@@H](C)CO)C(=O)c2cc(-c3ccncc3)cnc2O[C@H]1CN(C)C(=O)Nc1ccc2c(c1)OCO2`, inactive: 0.98.
To `C[C@H]1CN([C@@H](C)CO)C(=O)Cc2cc(NC(=O)CCC(F)(F)F)ccc2O[C@@H]1CN(C)Cc1ccc(Cl)c(Cl)c1` belongs inactive: 0.985.
On to `C[C@@H]1CCCCO[C@H](CN(C)Cc2ccccc2)[C@H](C)CN([C@H](C)CO)C(=O)c2cc(NC(=O)Nc3ccc(F)cc3)ccc2O1`, for which the relative growth was inactive: 0.991.
In the case of `CCN1CCN(C2CCN(Cc3cc(=O)n(C)c(=O)n3C)CC2)C1=O`, the relative growth was inactive: 1.01.
For `O=C(C[C@@H]1CC[C@H](NS(=O)(=O)c2ccc(F)cc2)[C@H](CO)O1)N1CCC(Cc2ccccc2)CC1`, the relative growth was inactive: 1.01.
